Data published in patent US8343993B2, “Hydroxyalkyl substituted imidazonaphthyridines” (3M Innovative Properties Company, priority 2005, dated 2013).
The name of at least one read-out is uncertain.

Tests used:
TNF-α = assay: Cytokine induction in human cells (PBMC): TNF-α secreted into culture media, ORIGEN M-Series immunoassay; type: cell-based; conditions: reference-adjusted, median where several experiments
From the text: (§1) An in vitro human blood cell system is used to assess cytokine induction. Activity is based on the measurement of interferon (α) and tumor necrosis factor (α) (IFN-α, and TNF-α, respectively) secreted into culture media as described by Testerman et. al. in “Cytokine Induction by the Immunomodulators Imiquimod and S-27609”, Journal of Leukocyte Biology, 58, 365-372 (September, 1995).
(§2) Whole blood from healthy human donors is collected by venipuncture into vacutainer tubes or syringes containing EDTA. Peripheral blood mononuclear cells (PBMC) are separated from whole blood by density gradient centrifugation using HISTOPAQUE-1077 (Sigma, St. Louis, Mo.) or Ficoll-Paque Plus (Amersham Biosciences Piscataway, N.J.). Blood is diluted 1:1 with Dulbecco's Phosphate Buffered Saline (DPBS) or Hank's Balanced Salts Solution (HBSS). Alternately, whole blood is placed in Accuspin (Sigma) or LeucoSep (Greiner Bio-One, Inc., Longwood Fla.) centrifuge frit tubes containing density gradient medium. The PBMC layer is collected and washed twice with DPBS or HBSS and re-suspended at 4×10^6 cells/mL in RPMI complete. The PBMC suspension is added to 96 well flat bottom sterile tissue culture plates containing an equal volume of RPMI complete media containing test compound.
(§3) The compounds are solubilized in dimethyl sulfoxide (DMSO). The DMSO concentration should not exceed a final concentration of 1% for addition to the culture wells. The compounds are generally tested at concentrations ranging from 30-0.014 μM. Controls include cell samples with media only, cell samples with DMSO only (no compound), and cell samples with reference compound.
(§4) The solution of test compound is added at 60 μM to the first well containing RPMI complete and serial 3 fold dilutions are made in the wells. The PBMC suspension is then added to the wells in an equal volume, bringing the test compound concentrations to the desired range (usually 30-0.014 μM). The final concentration of PBMC suspension is 2×10^6 cells/mL. The plates are covered with sterile plastic lids, mixed gently and then incubated for 18 to 24 hours at 37° C. in a 5% carbon dioxide atmosphere.
(§5) Following incubation the plates are centrifuged for 10 minutes at 1000 rpm (approximately 200×g) at 4° C. The cell-free culture supernatant is removed and transferred to sterile polypropylene tubes. Samples are maintained at −30 to −70° C. until analysis. The samples are analyzed for IFN-α by ELISA and for TNF-α by IGEN/BioVeris Assay.
The TNF-α concentration is determined by ORIGEN M-Series Immunoassay and read on an IGEN M-8 analyzer from BioVeris Corporation, formerly known as IGEN International, Gaithersburg, Md. The immunoassay uses a human TNF-α capture and detection antibody pair (Catalog Numbers AHC3419 and AHC3712) from Biosource International, Camarillo, Calif. Results are expressed in pg/mL.
Analysis of the data has two steps. First, the greater of the mean DMSO (DMSO control wells) or the experimental background (usually 20 pg/mL for IFN-α and 40 pg/mL for TNF-α) is subtracted from each reading. If any negative values result from background subtraction, the reading is reported as “*” and is noted as not reliably detectable. In subsequent calculations and statistics, “*” is treated as a zero. Second, all, background subtracted values are multiplied by a single adjustment ratio to decrease experiment to experiment variability. The adjustment ratio is the area of the reference compound in the new experiment divided by the expected area of the reference compound based on the past 61 experiments (unadjusted readings). […] The reference compound used is 2-[4-amino-2-ethoxymethyl-6,7,8,9-tetrahydro-α,α-dimethyl-1H-imidazo[4,5-c]quinolin-1-yl]ethanol hydrate (U.S. Pat. No. 5,352,784; Example 91) and the expected area is the sum of the median dose values from the past 61 experiments. […]

IFN-α = assay: Cytokine induction in human cells (PBMC): IFN-α secreted into culture media, ELISA; type: cell-based; conditions: reference-adjusted, median where several experiments
From the text: as §1, §2, §3, §4, §5
IFN-α concentration is determined with a human multi-subtype colorimetric sandwich ELISA (Catalog Number 41105) from PBL Biomedical Laboratories, Piscataway, N.J. Results are expressed in pg/mL.
Analysis of the data has two steps. First, the greater of the mean DMSO (DMSO control wells) or the experimental background (usually 20 pg/mL for IFN-α and 40 pg/mL for TNF-α) is subtracted from each reading. If any negative values result from background subtraction, the reading is reported as “*” and is noted as not reliably detectable. In subsequent calculations and statistics, “*” is treated as a zero. Second, all, background subtracted values are multiplied by a single adjustment ratio to decrease experiment to experiment variability. The adjustment ratio is the area of the reference compound in the new experiment divided by the expected area of the reference compound based on the past 61 experiments (unadjusted readings). […] The reference compound used is 2-[4-amino-2-ethoxymethyl-6,7,8,9-tetrahydro-α,α-dimethyl-1H-imidazo[4,5-c]quinolin-1-yl]ethanol hydrate (U.S. Pat. No. 5,352,784; Example 91) and the expected area is the sum of the median dose values from the past 61 experiments.
The minimum effective concentration is calculated based on the background-subtracted, reference-adjusted results for a given experiment and compound. […]

[1] = Table 4, background-subtracted, * = below background

CC(C)(F)Cn1c(CO)nc2c(N)nc3cccnc3c21 [Example 14, [4-Amino-1-(2-fluoro-2-methylpropyl)-1H-imidazo[4,5-c][1,5]naphthyridin-2-yl]methanol]
Maximal Response TNF (TNF-α; [1]): 1922 pg/mL
Maximal Response IFN (IFN-α; Table 4, background-subtracted): 1833 pg/mL

CCc1nc2c(N)nc3cccnc3c2n1CC(C)(C)O [Analog 4, 1-(4-amino-2-ethyl-1H-imidazo[4,5-c][1,5]naphthyridin-1-yl)-2-methylpropan-2-ol, reference compound]
Maximal Response TNF (TNF-α; [1]): 3863 pg/mL
Maximal Response IFN (IFN-α; Table 4, background-subtracted): 2150 pg/mL

CS(=O)(=O)NCCn1c(CO)nc2c(N)nc3cccnc3c21 [Example 4, N-[2-(4-Amino-2-hydroxymethyl-1H-imidazo[4,5-c][1,5]naphthyridin-1-yl)ethyl]methanesulfonamide]
Maximal Response IFN (IFN-α; Table 4, background-subtracted): 1520 pg/mL

CC(C)(O)Cn1c(CCO)nc2c(N)nc3cccnc3c21 [Example 7, 1-[4-Amino-2-(2-hydroxyethyl)-1H-imidazo[4,5-c][1,5]naphthyridin 1-yl]-2-methylpropan-2-ol]
Maximal Response TNF (TNF-α; Table 3, background-subtracted): 342 pg/mL
Maximal Response TNF (TNF-α; [1]): 331 pg/mL
Maximal Response IFN (IFN-α; Table 3, background-subtracted): 1849 pg/mL
Maximal Response IFN (IFN-α; Table 4, background-subtracted): 2063 pg/mL

CS(=O)(=O)NCCCCn1c(CCO)nc2c(N)nc3cccnc3c21 [Example 3, N-{4-{4-Amino-2-(2-hydroxyethyl)-1H-imidazo[4,5-c][1,5]naphthyridin-1-yl]butyl}methanesulfonamide]
Maximal Response TNF (TNF-α; [1]): 7 pg/mL
Maximal Response IFN (IFN-α; Table 4, background-subtracted): 3008 pg/mL

CC(C)(O)Cn1c(CO)nc2c(N)nc3cccnc3c21 [Example 6, 1-(4-Amino-2-hydroxymethyl-1H-imidazo[4,5-c][1,5]naphthyridin-1-yl)-2-methylpropan-2-ol]
Maximal Response TNF (TNF-α; Table 3, background-subtracted): 684 pg/mL
Maximal Response TNF (TNF-α; [1]): 1316 pg/mL
Maximal Response IFN (IFN-α; Table 3, background-subtracted): 3038 pg/mL
Maximal Response IFN (IFN-α; Table 4, background-subtracted): 2290 pg/mL

CCOCc1nc2c(N)nc3cccnc3c2n1CC(C)(C)NC(=O)C1CCCCC1 [Analog 6, N-[2-(4-amino-2-ethoxymethyl-1H-imidazo[4,5-c][1,5]naphthyridin-1-yl)-1,1-dimethylethyl]cyclohexanecarboxamide]
Maximal Response TNF (TNF-α; [1]): 8691 pg/mL
Maximal Response IFN (IFN-α; Table 4, background-subtracted): 1647 pg/mL

CC(C)(Cn1c(CO)nc2c(N)nc3cccnc3c21)NC(=O)C1CCCCC1 [Example 1, N-[2-(4-Amino-2-hydroxymethyl-1H-imidazo[4,5-c][1,5]naphthyridin-1-yl)-1,1-dimethylethyl]cyclohexanecarboxamide]
Maximal Response TNF (TNF-α; [1]): 798 pg/mL
Maximal Response IFN (IFN-α; Table 4, background-subtracted): 1467 pg/mL

Cc1nc2c(N)nc3cccnc3c2n1CC(C)C [Analog 10, 2-methyl-1-(2-methylpropyl)-1H-imidazo[4,5-c][1,5]naphthyridin-4-amine, reference compound]
Maximal Response TNF (TNF-α; [1]): 699 pg/mL
Maximal Response IFN (IFN-α; Table 4, background-subtracted): 1117 pg/mL

CCCc1nc2c(N)nc3cccnc3c2n1CC(C)(C)O [Analog 5, 1-(4-amino-2-propyl-1H-imidazo[4,5-c][1,5]naphthyridin-1-yl)-2-methylpropan-2-ol, reference compound]
Maximal Response TNF (TNF-α; [1]): 5526 pg/mL
Maximal Response IFN (IFN-α; Table 4, background-subtracted): 2484 pg/mL

CC(C)(Cn1c(CO)nc2c(N)nc3cccnc3c21)NS(C)(=O)=O [Example 2, N-[2-(4-Amino-2-hydroxymethyl-1H-imidazo[4,5-c][1,5]naphthyridin-1-yl)-1,1-dimethylethyl]methanesulfonamide]
Maximal Response TNF (TNF-α; [1]): 170 pg/mL
Maximal Response IFN (IFN-α; Table 4, background-subtracted): 1914 pg/mL

CC(C)(F)Cn1c(CCO)nc2c(N)nc3cccnc3c21 [Example 15, 2-[4-Amino-1-(2-fluoro-2-methylpropyl)-1H-imidazo[4,5-c][1,5]naphthyridin-2-yl]ethanol]
Maximal Response TNF (TNF-α; [1]): 84 pg/mL
Maximal Response IFN (IFN-α; Table 4, background-subtracted): 1646 pg/mL

Cc1nc2c(N)nc3cccnc3c2n1CC(C)(C)O [Analog 3, 1-(4-amino-2-methyl-1H-imidazo[4,5-c][1,5]naphthyridin-1-yl)-2-methylpropan-2-ol, reference compound]
Maximal Response TNF (TNF-α; [1]): 6519 pg/mL
Maximal Response IFN (IFN-α; Table 4, background-subtracted): 1952 pg/mL

CCOCc1nc2c(N)nc3cccnc3c2n1CC(C)(C)O [Analog 1, 1-(4-amino-2-ethoxymethyl-1H-imidazo[4,5-c][1,5]naphthyridin-1-yl)-2-methylpropan-2-ol]
Maximal Response TNF (TNF-α; Table 3, background-subtracted): 4921 pg/mL
Maximal Response TNF (TNF-α; [1]): 7275 pg/mL
Maximal Response IFN (IFN-α; Table 3, background-subtracted): 658 pg/mL
Maximal Response IFN (IFN-α; Table 4, background-subtracted): 1674 pg/mL

CC(C)Cn1c(CO)nc2c(N)nc3cccnc3c21 [Example 96, [4-Amino-1-(2-methylpropyl)-1H-imidazo[4,5-c][1,5]naphthyridin-2-yl]methanol]
Maximal Response TNF (TNF-α; [1]): 363 pg/mL
Maximal Response IFN (IFN-α; Table 4, background-subtracted): 1592 pg/mL

Cc1nc2c(N)nc3cccnc3c2n1CC(C)(C)F [Analog 8, 1-(2-fluoro-2-methylpropyl)-2-methyl-1H-imidazo[4,5-c][1,5]naphthyridin-4-amine, reference compound]
Maximal Response TNF (TNF-α; [1]): 1679 pg/mL
Maximal Response IFN (IFN-α; Table 4, background-subtracted): 2120 pg/mL

COCCc1nc2c(N)nc3cccnc3c2n1CC(C)(C)O [Analog 2, 1-[4-amino-2-(2-methoxyethyl)-1H-imidazo[4,5-c][1,5]naphthyridin-1-yl]-2-methylpropan-2-ol, reference compound]
Maximal Response TNF (TNF-α; Table 3, background-subtracted): 7762 pg/mL
Maximal Response TNF (TNF-α; [1]): 7503 pg/mL
Maximal Response IFN (IFN-α; Table 3, background-subtracted): 4143 pg/mL
Maximal Response IFN (IFN-α; Table 4, background-subtracted): 3142 pg/mL

CS(=O)(=O)NCCn1c(CCO)nc2c(N)nc3cccnc3c21 [Example 5, N-{2-[4-Amino-2-(2-hydroxyethyl)-1H-imidazo[4,5-c][1,5]naphthyridin-1-yl]ethyl}methanesulfonamide]
Maximal Response IFN (IFN-α; Table 4, background-subtracted): 49 pg/mL

CCOCc1nc2c(N)nc3cccnc3c2n1CC(C)C [Analog 9, 2-ethoxymethyl-1-(2-methylpropyl)-1H-imidazo[4,5-c][1,5]naphthyridin-4-amine, reference compound]
Maximal Response TNF (TNF-α; [1]): 3160 pg/mL
Maximal Response IFN (IFN-α; Table 4, background-subtracted): 1524 pg/mL
